According to PubChem BioAssay AID1963576 (National Center for Advancing Translational Sciences (NCATS), 2024):
Out of some 46,000 compounds screened, about 60 (0.1%) were called active. Roughly 3% stayed inconclusive and do not appear here. Calls follow the shape of the dose curve; as a rule, active = well fitted inhibition curve with a large enough effect; inconclusive = small, poorly fitted or top-dose-only effect; inactive = no such curve, though single readings can be large or run the other way. The list shows a part of the results.

Assay: Primary qHTS assay for Inhibitors of ovarian cancer metastasis using an organotypic tumor microenvironment (TME) model. Also: nearly all actives have a fitted effect of over 65% in size.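 As to Potency: count of GFP cancer cells still attached after washing and fixation.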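 As to activity change, negative = inhibition: plate controls were DMSO wells for no effect and tomatine positive control wells for full effect.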
Conditions: SKOV3ip1-GFP adhesion/invasion on 3D omental model, fluorescence; series mostly up to 45.8 µM; activity change, negative = inhibition: at the top concentration
In short: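 Adhesion/invasion was scored as fixed GFP-labeled SKOV3ip1 cell counts (488/509 nm), normalized to DMSO and tomatine controls. Cancer cells in serum-free medium, with four compound doses (0.36-46 umol/L), sat 2 hr at RT then 16 hr at 37 C on a 48 hr fibroblast/mesothelial/ECM culture.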
Potency is read from the fitted curve at half-maximal effect.

outcome, inactive:
Cc1ccc(Cl)cc1NC(=O)C(C)n1nc(-c2ccccc2)ccc1=O (configuration not stated)
Cc1ccc(-n2ncc3c(NCCC4=CCCCC4)ncnc32)cc1
Cc1c(C(=O)N2CCC(c3nc4ccccc4s3)CC2)oc2ccc(Cl)cc12
Cc1ccc(Cl)cc1NC(=O)Cn1c(=O)oc2cc(S(=O)(=O)N3CCCC3)ccc21
Cc1ccc(CN2C(=O)C3(c4ccccc42)N(c2cccc(F)c2)C(=O)CS3(=O)=O)cc1 (configuration not stated)
COc1ccccc1N1CCN(CCCNC(=O)c2cnn(-c3cccc(Cl)c3)c2C2CCN(C(=O)OC(C)(C)C)CC2)CC1
Cc1ccccc1CN1CCC(CNc2ncnc3onc(-c4ccc(F)cc4)c23)CC1
COc1ccccc1C(=O)Nc1nc(-c2ccccc2)ns1
COc1ccccc1CNS(=O)(=O)c1cc2c3c(c1)CCN3C(=O)CC2
CCOc1ccccc1NC(=O)NCCn1c(=O)oc2ccc(C)cc21
COc1ccc(OC)c(CNC(=O)CCn2c(=O)c3cccn3c3ccc(F)cc32)c1
COc1ccc(Cn2c(C(=O)O)c(CNC3CCCCCC3)c3ccc(OC)cc32)cc1
CCC1=Nc2cc(C(=O)NC3CCCC3)ccc2Sc2ccc(Br)cc21
Cc1ccccc1-c1nc(CS(=O)(=O)CC(=O)NCc2cccc(Cl)c2)c(C)o1
COc1ccc(-n2ncc3c(NCCC4=CCCCC4)ncnc32)cc1
Cc1noc(/C=C/c2ccco2)c1S(=O)(=O)N1CCC(C(=O)Nc2ccc(F)c(Cl)c2)CC1
Cc1ccc2c(=O)c(C(=O)c3cccc(Cl)c3)cn(CC(=O)NCc3ccc(F)cc3)c2n1
CCCCN1CCCc2cc(CN(CCCN3CCOCC3)C(=O)Nc3ccc(OCC)cc3)ccc21
O=C(NCc1cccc(Cl)c1)C(=O)Nc1ccc2nc3n(c(=O)c2c1)CCCCC3
Cc1ccccc1NS(=O)(=O)c1nnc(NC(=O)c2ccccc2C)s1
Cc1ccc(NC(=O)N2CCc3cc(S(=O)(=O)N4CCC(C)CC4)ccc32)cc1C
Cc1ccc(-c2nc(-c3cc4cccc(OCc5cccc(C)c5)c4oc3=O)no2)cc1
CCN(CC)c1ccc(C(=O)N2CCC(c3c[nH]c4ccccc34)(c3c[nH]c4ccccc34)CC2)cc1
Cc1ccc(CNC(=O)c2ccc(-n3cnc4cccnc43)cc2)cc1
O=C(c1ccc2c(c1)N(Cc1ccccc1F)C(=O)c1ccccc1S2=O)N1CCN(c2ccccc2)CC1 (configuration not stated)
CCc1ccc(NC(=O)Cn2c3ncccc3c(=O)n2-c2ccc(C)c(C)c2)cc1
Cc1cccc(NC(=O)CSc2nc3c([nH]c4ccccc43)c(=O)n2C)c1C
CCOc1ccc(S(=O)(=O)N2CCN(c3c(C)cccc3C)CC2)c2ccccc12
Cn1c2ccccc2c2c(C(=O)N3CCN(c4ccc(F)cc4)CC3)cn(C3CCCCC3)c(=O)c21
CC(C)CCN(Cc1ccco1)C(=O)c1cc2c(Cl)nc3ccccc3c2s1

Activity change, negative = inhibition, inactive:
Oc1c(C(c2ccccc2F)N2CCN(Cc3ccccc3)CC2)sc2nc(-c3ccco3)nn12 (configuration not stated) -5.32%
CCNC(=O)c1c(NC(=O)Cc2coc3cc(C)cc(C)c23)sc2c1CCCC2 -14%
COc1ccccc1N1CCN(S(=O)(=O)c2c(C)sc3ncn(CC(=O)N(C)c4ccc(Cl)cc4)c(=O)c23)CC1 -6.49%
COc1ccc(C(=O)OC2=C(C(=O)c3ccccc3)N(C)S(=O)(=O)c3ccccc32)cc1OC -7.28%
COCCn1c(=NC(=O)c2ccc3c(c2)OCCO3)sc2cc(C(=O)OC)ccc21 7.28%
CCOc1ccccc1N(C)C(=O)C1CCCN(c2ncnc3c2nc2n3CCCCC2)C1 (configuration not stated) -0.347%
Cc1ccc(-n2ncc3c(Nc4cccc(C)c4C)ncnc32)cc1 -3.28%
Cc1ccc(NC(=O)c2cc(-c3ccc(Br)s3)nc3ccccc23)cc1F -2.45%
Nc1ccc(S(N)(=O)=O)cc1 32.6%
Cc1cc(C)c2c(=O)nc(SCc3ccccc3C)n(C3CC3)c2n1 -4.99%
Cc1ccc2c(CC(=O)Nc3ccc(S(=O)(=O)N4CCCCC4)cc3)coc2c1 -4.43%
CCOc1ccc(CNC(=O)Cn2cc3c(n2)-c2c(oc(C(=O)N4CCOCC4)c2C)CC3)cc1 -4.2%
CC(=O)Nc1ccc2nc(-c3cc(C)ccc3C)[nH]c2c1 -17.9%
CCc1cccc(-n2nnc(-c3nsc(NC(=O)c4cccs4)n3)c2C)c1 -0.0448%
Cc1ccc(OCc2ccc(-c3nc(C#N)c(NCc4cccnc4)o3)o2)cc1 0.551%
CCCCN(CC)CCNC(=O)c1cn(C)c(=O)c2c1c1ccccc1n2C 5.09%
COc1cc(NC(=O)NC(C)c2c(-n3cccc3)sc3c2CCCC3)cc(OC)c1OC (configuration not stated) -14.2%
CCOC(=O)c1c(C)c(-c2ccccc2)n(CC(=O)Nc2cc(C)ccc2OC)c1C -6.46%
COc1ccccc1C(=O)NCCn1cc(SCc2ccccc2Cl)c2ccccc21 20.7%
COc1ccc(-c2nc(-c3ccccc3)c(-c3ccc(O)cc3)[nH]2)cc1 6%
CCc1ccc(-c2nn(CC(=O)NC3CCCC3)c3c2cnc2ccc(F)cc23)cc1 9.21%
COC(=O)c1ccccc1NC(=O)Cn1nnc2sc(-c3ccccc3)cc2c1=O -4.66%
Cc1ccc2sc(N3CCN(C(=O)CCS(=O)(=O)c4ccc(F)cc4)CC3)nc2c1C -3.62%
O=C(/C=C/c1ccc(F)cc1)Nc1nc2n(n1)C(c1ccc(Cl)cc1)C=C(c1ccccc1)N2 (configuration not stated) 0.615%
Cc1ccc(N2CC(C(=O)Nc3ccc(Br)cc3)CC2=O)cc1 (configuration not stated) 4.2%
C=Cc1ccc(CN2C(=O)N(c3cccc(Cl)c3)S(=O)(=O)c3ccccc32)cc1 -7.49%
COc1ccc(C(=O)n2nc(-c3ccco3)nc2NCc2cccs2)cc1 0.738%
COc1cc(Nc2nc3ccccc3c3nnc(C)n23)cc(OC)c1 -8.35%
CC(C)C[C@H](NC(=O)c1cc2ccccc2s1)C(=O)N1CCN(C(=O)[C@H](CO)NS(=O)(=O)c2ccc(Cl)cc2Cl)CC1 2.64%
COc1ccc(C)cc1Nc1c2c(nc3nc(-c4cccs4)nn13)CCCC2 2.48%
COc1cccc(CN2CCc3nc(SCC(=O)Nc4ccccc4)[nH]c(=O)c3C2)c1 8.13%
O=S(=O)(NCCS(=O)(=O)N1CCN(c2ccccc2F)CC1)c1ccc(Cl)cc1 -0.87%
CCN(C(=O)c1cc2c(s1)-c1ccccc1OC2)c1cc(Cl)ccc1OC -25.2%
CCOC(=O)c1ccc(Nc2ncnc3c2cnn3-c2cccc(Cl)c2)cc1 12.6%
CC1Cc2cc(S(=O)(=O)NCc3ccccc3Cl)ccc2N1C(=O)C1CCC1 (configuration not stated) -21.9%
CCOC(=O)c1ccc(NC(=O)c2ncn(-c3ccccc3)n2)cc1 -4.2%
CC(NC(=O)Nc1cc(Cl)ccc1Cl)c1c(-n2cccc2)sc2c1CCCC2 (configuration not stated) 11.2%
COc1ccc(N2CCN(C(=O)CCn3c(=O)c4cccn4c4cccnc43)CC2)cc1 1.26%
Cc1ccc(NC(=O)/C(C#N)=C/c2cc(C)n(-c3ccc(F)cc3)c2C)cc1C -4.36%
CCc1c(C)nc2nncn2c1Nc1ccc(C(C)C)cc1 0.317%
O=C(Cc1ccccc1)Nc1sc2c(c1C(=O)Nc1ccc(Cl)cc1)CCCC2 0.835%
O=C(NCCc1csc(-c2cccc(F)c2)n1)c1cccs1 -6.07%
CCOc1ccc(NC(=O)c2ccc(-c3nc(COc4ccccc4)c(C)o3)cc2)cc1 -3.18%
N#C/C(=C\c1ccc(Cl)cc1)c1nc2ccccc2[nH]1 16.9%
CCOc1ccccc1NC(=O)C1CCN(S(=O)(=O)c2ccccc2)CC1 -7.34%
COc1ccc(-c2nc(SCC(=O)Nc3ccc4c(c3)OCO4)c(-c3ccc(OC)cc3)[nH]2)cc1 -12.1%
CN(C(=O)CSc1nc2c(c(=O)[nH]1)CCCC2)c1ccccc1 0.683%
CCOC(=O)c1ccc(NS(=O)(=O)c2ccc(Br)s2)cc1 1.06%
COc1ccccc1NC(=O)CSc1oc(-c2cccs2)nc1S(=O)(=O)c1ccc(Br)cc1 1.43%
CC(NC(=O)Nc1ccccc1C(F)(F)F)c1c(-n2cccc2)sc2c1CCCC2 (configuration not stated) -0.164%
COc1ccccc1CNC(=O)Cn1ncc2c3ccccc3n(Cc3ccccc3C)c2c1=O -3.55%
COc1ccc(NCc2cc3cc4c(cc3n(CC(=O)Nc3ccc(C)cc3)c2=O)OCO4)cc1 22%
Cc1cc(C)cc(OC(=O)c2snnc2C)c1 -1.39%
CCOc1ccccc1Nc1cc(-c2ccccc2)nc(C)n1 -11.3%
COc1ccc(NC(=O)CSc2nnc(-c3cccs3)o2)cc1 20.1%
COc1cc(Cl)c(C)cc1NC(=O)CSc1ncc(S(=O)(=O)c2ccc(C(C)(C)C)cc2)c(=O)[nH]1 -2.01%
O=C1Nc2ccc(S(=O)(=O)Nc3ccccc3O)c3cccc1c23 3.64%
COc1cc(C(=O)Nc2ccc3oc(-c4ccccc4)nc3c2)cc(OC)c1OC -3.12%
COc1cc(NC(=O)Cn2ncc3c([nH]c4ccc(C)cc43)c2=O)cc(OC)c1OC -5.66%
CC(C)(Oc1ccc(C2CC2(Cl)Cl)cc1)C(=O)O (configuration not stated) 3.54% [at 92.2 µM]
CCOc1ccc(C2Nc3ccccc3-c3nnc(SCc4ccccc4)nc3O2)cc1OC (configuration not stated) 4.08%
COc1ccc(-c2noc(CSCC(=O)Nc3cccc(C(F)(F)F)c3)n2)cc1OC -13.9%
Cc1ccc(S(=O)(=O)CC(=O)Nc2sc3c(c2C#N)CCCCC3)cc1 3.1%
Cc1ccccc1CNC(=O)C1CCCN(S(=O)(=O)N(C)c2ccc(F)cc2)C1 (configuration not stated) 12.1%
CCOc1ccccc1NC(=O)Nc1nnc(N2CCCCCC2)s1 1.6%
CCC(=O)N1CCc2cc(Br)cc(S(=O)(=O)CCC(=O)NCCc3ccc(Cl)cc3)c21 1.98%

Potency, active:
c1ccc2c(-c3cnn4cc(-c5ccc(N6CCNCC6)cc5)cnc34)ccnc2c1 23.5 µM
